Assay results from paper PMC12136788.
The list shows a part of the results.

T1: UNK ZnF1-3 (human, UniProt Q9C0B0 31-174)
T1 sequence: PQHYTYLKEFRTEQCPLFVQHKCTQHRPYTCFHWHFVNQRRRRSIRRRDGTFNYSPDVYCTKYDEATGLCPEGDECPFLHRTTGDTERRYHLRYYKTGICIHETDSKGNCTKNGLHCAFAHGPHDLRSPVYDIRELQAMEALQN

B1: chr5:113341905:113341906:-_ENSMUSG00000042249_ENSMUST00000065167|mus_hu|FALSE|FALSE (ssRNA)
RNA: GGGAGUUCUACAGUCCGACGAUCAAAACAACAGCCAAGUAUACCAUGAUGUUUAAUCCAACUGACUUUUCCUCUGGCCAUGCAGGCAACCGGGUGCAGACACAGCGGUAUCCUGUGUCUGGUCGCAGAAACACCUCCAUCACACAACAGAGGAUUGAGCAUCA
B2: chr3:176740097:176740098:-_ENSG00000177565_ENST00000430069|hu_mus|hu_hu_hu_mus_True|1_108 (ssRNA)
RNA: GGGAGUUCUACAGUCCGACGAUCUGUUUUUUACACCACAAAAGGAGGCACUUUCAGUAUCUGCAAAAGGUGUUUAGUCCUAAAACAUACUCACCUAGAGGAUAACUCAGGAAAACAAUCUGUUACACUCUAAGACCUUAGGAACAACAGAGGAUUGAGCAUCA
B3: 212115369_212118161_2648_CDS_ENSG00000143493_ENST00000366992|human|control|control (ssRNA)
RNA: GGGAGUUCUACAGUCCGACGAUCGUUCAACAGAAAUUGAGUACUGAAGUAAUCAUUAUGAGGUUCAACCCUUUGCUCCAUCUCAUUGGUCAUGUUGUCAAUGGGUAUCUUGUAGUCUUGUCCAGAUUUACUCUGCAGUGUGGACAACAGAGGAUUGAGCAUCA
B4: chrX:50293416:50293417:+_ENSMUSG00000025626_ENSMUST00000078944|mus_hu|FALSE|FALSE (ssRNA)
RNA: GGGAGUUCUACAGUCCGACGAUCUUUCUUUUUACUUUUAGGUGAUGAGGGCUCCAGUUCAUGUUCAUUAAAACUUUCUUCUAAAUCAGCUUCGGAGUUAUGUGCAGUUUUCUUGUGUUUUCGGCAAUAGACCAUGUAAAUUCCCAACAGAGGAUUGAGCAUCA
B5: chr7:75932113:75932114:+_ENSG00000106211_ENST00000248553|hu_hu|hu_hu_hu_mus_False|48_78 (ssRNA)
RNA: GGGAGUUCUACAGUCCGACGAUCCUGCGACCACUCAUCGGGCAACCGGGGCACCCCGAAGGCCUGGUCGAAGAGGCGGCUGUGUGCGUACCAGUCGUCCCGGAAUGGUUCCCAGCUCGGGCUCCGCAGCAGCGAGAAGGGCACCAACAGAGGAUUGAGCAUCA
B6: chr16:94690093:94690094:+_ENSMUSG00000040785_ENSMUST00000117648|mus_hu|mus_mus_mus_hu_True|1_78 (ssRNA)
RNA: GGGAGUUCUACAGUCCGACGAUCGGGCUGGGAUGACGGACACACAGCCUCGAUUCCGGUAAAAAAAAGUCUUAGUCGAUACUAAUUAAAAAGUGUUAAUGAUUUUUGAAAAUCAGAUUACAUCUAUAAAAGAUGAAAGCACUUCAACAGAGGAUUGAGCAUCA
B7: chr1:225611761:225611762:-_ENSG00000143815_ENST00000272163|hu_mus|hu_hu_hu_mus_True|1_88 (ssRNA)
RNA: GGGAGUUCUACAGUCCGACGAUCCCAGGCCAUCGGCCUCUGACCACUUCACCAUCGACAAACUUCCUACUUGGCAUUUUCUAAAAUUAGUCUGGCCGCGCUCCGGCGGGAACUCCAGCCACUCCAGGACAGUCACCCGCACAGCAACAGAGGAUUGAGCAUCA
B8: chr9:107755404:107755405:-_ENSMUSG00000032582_ENSMUST00000035201|mus_hu|FALSE|FALSE (ssRNA)
RNA: GGGAGUUCUACAGUCCGACGAUCCUCUAUAAUCCAUAGAAGUACCAUCUCCACCCCUAUAGUCCAUAGGUGGUCCUUCUCUAUCCCGAAAAUCCCCAGAAUGUAUGUCCCUACCCCUGAAGUCCAACUGUGAUGAAUCUCUGCCAACAGAGGAUUGAGCAUCA
B9: chr10:33190432:33190433:-_ENSG00000150093_ENST00000302278|hu_mus|hu_hu_hu_mus_True|8_48 (ssRNA)
RNA: GGGAGUUCUACAGUCCGACGAUCUACAUUUUCCAAACCUGCAUGUGAAUAAAACCCUGGCCACAGAGCCCCAAAACUACCCUACUGUGACUAUGGAGCUGCUGCUGUGAGCUUGGUGUUGCAAAAUUUUGCACGGGAGGAUUCCAACAGAGGAUUGAGCAUCA
B10: 32149854_32149974_91_5pUTR_ENSMUSG00000021893_ENSMUST00000022451|mouse|control|control (ssRNA)
RNA: GGGAGUUCUACAGUCCGACGAUCGGUGGAGUGGCAAAGUUUACUUUCGAGGGCGGCGGAAGAGAUGACGGAGCCCCACUACCUCAGACCCGCCCGGAGGACUGCGAGCUCCGAGCAGCCCGGGCUCGGAGCCCUCGCGGCCGCCAACAGAGGAUUGAGCAUCA
B11: chr1:60041781:60041782:+_ENSMUSG00000041040_ENSMUST00000036540|mus_hu|mus_mus_mus_hu_False|48_108 (ssRNA)
RNA: GGGAGUUCUACAGUCCGACGAUCAAGAGGAGUGAAUUAAAGUAAAUGCAGUAGUGGCAAAUUUUCUUUUAUUUUCCUUCACAAAAGAAAACCUCAGUAACCCAGUCCUAGUCUUGGACAUAGUGAAAGCUAUAAAUUCUGACUCAACAGAGGAUUGAGCAUCA
B12: chr9:110092072:110092073:+_ENSG00000119318_ENST00000416373|hu_hu|motif|central (ssRNA)
RNA: GGGAGUUCUACAGUCCGACGAUCCUGUAUUUAUCCCUGCCCUGUAUCCUAGAUCCCUCCCUCCCCACCCCCAACAAUCGGCGGCCUUAUACCAAGUAUUGUGGAUAUGAGCCCAAGUCAUCCCAGACAAUCCAGUGAACAAGUCAACAGAGGAUUGAGCAUCA
B13: 165728802_165738018_155_5pUTR_ENSG00000143183_ENST00000464650|human|control|control (ssRNA)
RNA: GGGAGUUCUACAGUCCGACGAUCGUUUCCUUCUUCUUUUCCAAUUUUUUACUCUGUUUUUCCACUUCUGCCUUCAGUCUCUUGUACUUGUCUGUCCUGUAAACCAGGACCCAGGUUAUGCCUUCGUCUCUGCACUCUCACCCGCAACAGAGGAUUGAGCAUCA
B14: chr11:77412602:77412603:-_ENSG00000048649_ENST00000308488|hu_mus|FALSE|FALSE (ssRNA)
RNA: GGGAGUUCUACAGUCCGACGAUCCUCACUCUUACUUCUGGGGGCCUUCUCUUCAACUUUCGUACUGCAGGGUUCUGUGGCAGACAAAGUGGGUUUUAAAGAGAGAUCCGUGGCUUUCUCAGAAGGUUCGAGAGGCAUGUCCAUCAACAGAGGAUUGAGCAUCA
B15: 85482702_85482822_4022_3pUTR_ENSMUSG00000042523_ENSMUST00000123491|mouse|control|control (ssRNA)
RNA: GGGAGUUCUACAGUCCGACGAUCUGUAAUACAAAUAUUAAGCUUUAGAGACAGAACAAAAUCUAUCAUAAAAGCUAGAUUUUGUUGACAGUGACAGAGGUAGAUUAACUGGUCAACCAUUGUCCUAACAUGAGCAGGGGACAACAACAGAGGAUUGAGCAUCA
B16: 120611786_120616068_578_CDS_ENSMUSG00000090100_ENSMUST00000028740|mouse|control|control (ssRNA)
RNA: GGGAGUUCUACAGUCCGACGAUCACGAAGGGUAGUGCUAAUAGUGAAUGUGCCCCGGGAUUGGCUACGGCGGAGAUCUGCCAGAUUCCGUCCCUGCAAUUGCAUGACCACGUAGUUGAAACGAUCAUUUCUCCCACAGCCAAUCAACAGAGGAUUGAGCAUCA
B17: 29965161_29965281_2354_3pUTR_ENSG00000104660_ENST00000321250|human|control|control (ssRNA)
RNA: GGGAGUUCUACAGUCCGACGAUCCCUGCAAAAAAAAGUCCAGUAGAUCACAAGCACAAAGAGUUCCCAACUGUCUCACCAGCUCUCUAACUCAUGUGUACCUGCACCUUCCUCUUGAAAUCUGAACAUUAUAAUACCACAAGCCAACAGAGGAUUGAGCAUCA
B18: chr4:140556289:140556290:+_ENSMUSG00000036622_ENSMUST00000037055|mus_mus|mus_mus_mus_hu_False|8_8 (ssRNA)
RNA: GGGAGUUCUACAGUCCGACGAUCGAUGGAGCUCACCAGGCCCCCUUUUGCCGUGCAGAACCCUGUGCGGGUCACCACUGCCAGGACGUGCGGUCCCACAUAGGCCCGGGCCUGCAAGAUGAGGGUCCCACAGAAGAGUGUGUGCAACAGAGGAUUGAGCAUCA
B19: chr8:101937209:101937210:-_ENSG00000164924_ENST00000353245|hu_hu|FALSE|FALSE (ssRNA)
RNA: GGGAGUUCUACAGUCCGACGAUCAUCACCAGCGGCAACCUCAGCCAAGUAACGGUAGUAAUCUCCUUUCAUUUUCAAAUAGAAGACUUUGCUCUCUGCUUGUGAAGCAUUGGGGAUCAAGAACUUUUCCAAAAGAGACAGUACCAACAGAGGAUUGAGCAUCA
B20: chr3:41265538:41265539:+_ENSG00000168036_ENST00000349496|hu_hu|FALSE|FALSE (ssRNA)
RNA: GGGAGUUCUACAGUCCGACGAUCCAUGUCCAACUCCAUCAAAUCAGCUUGAGUAGCCAUUGUCCACGCUGGAUUUUCAAAACAGUUGUAUGGUAUACUUCAAAUACCCUCAGGGGAACAGGCUCCUCCCGCCGCGGGAGUCCGCAACAGAGGAUUGAGCAUCA
B21: chr12:39756943:39756944:-_ENSG00000139116_ENST00000544797|hu_mus|hu_hu_hu_mus_False|68_98 (ssRNA)
RNA: GGGAGUUCUACAGUCCGACGAUCGGUUUGGCUGUUACCCCCGAGGGAAUCCUGCAAGAGUCUUGUCAGCUUGGAAUCUCUGUAAGGGACAUGGGUGGCUCUCUUGCUCUUGUCCCCCAAGGCGCUGAUUACAUUCCCAAGAGCCAACAGAGGAUUGAGCAUCA
B22: chr2:26507767:26507768:+_ENSG00000138029_ENST00000317799|hu_mus|FALSE|FALSE (ssRNA)
RNA: GGGAGUUCUACAGUCCGACGAUCCUUGGUUUUCCUACCCAUGUAGUUUUGUGCAAACCAAUCAGAAUCCAUGGCUUUAAAGUUAGCUAAAAUCUGGCCUGAGAAGGCUUCAUGAAAUUCAAAAGCAUCGAUAUCAUUCAUGGUCAACAGAGGAUUGAGCAUCA

Target: T1, UNK ZnF1-3
Test: nsRBNS (natural sequence RNA bind-n-seq); RBNS binding buffer (assumed for nsRBNS): 25 mM Tris pH 7.5, 150 mM KCl, 3 mM MgCl2, 0.01% Triton X-100, 500 ug/ml BSA, 20 U/ml SUPERase-In, 4 C; UNK is unkempt and MSI1 is Musashi-1; names of the RNAs are library labels; protein concentration not given here; high values mean tight binding

Binder	binding signal
B1	0.836 enrichment R
B2	0.923 enrichment R
B3	0.838 enrichment R
B4	0.511 enrichment R
B5	0.54 enrichment R
B6	1.23 enrichment R
B7	1.13 enrichment R
B8	0.997 enrichment R
B9	1.06 enrichment R
B10	1.34 enrichment R
B11	0.789 enrichment R
B12	2.72 enrichment R
B13	0.414 enrichment R
B14	1.18 enrichment R
B15	1.15 enrichment R
B16	1.34 enrichment R
B17	1.7 enrichment R
B18	1.2 enrichment R
B19	0.913 enrichment R
B20	0.915 enrichment R
B21	0.742 enrichment R
B22	0.781 enrichment R
